{"source": "paper PMC4336329", "about": "(PLoS ONE, 2015)", "note": "In all, about 310,000 compounds went through this assay and about 2,200 (0.71%) showed an effect of 50% or more. Effects have a minus sign here. Some of the results follow."}
{"target": "human ether-à-go-go-related gene (hERG) potassium channel (human, UniProt Q12809)", "sequence (Q12809 whole entry, looked up)": "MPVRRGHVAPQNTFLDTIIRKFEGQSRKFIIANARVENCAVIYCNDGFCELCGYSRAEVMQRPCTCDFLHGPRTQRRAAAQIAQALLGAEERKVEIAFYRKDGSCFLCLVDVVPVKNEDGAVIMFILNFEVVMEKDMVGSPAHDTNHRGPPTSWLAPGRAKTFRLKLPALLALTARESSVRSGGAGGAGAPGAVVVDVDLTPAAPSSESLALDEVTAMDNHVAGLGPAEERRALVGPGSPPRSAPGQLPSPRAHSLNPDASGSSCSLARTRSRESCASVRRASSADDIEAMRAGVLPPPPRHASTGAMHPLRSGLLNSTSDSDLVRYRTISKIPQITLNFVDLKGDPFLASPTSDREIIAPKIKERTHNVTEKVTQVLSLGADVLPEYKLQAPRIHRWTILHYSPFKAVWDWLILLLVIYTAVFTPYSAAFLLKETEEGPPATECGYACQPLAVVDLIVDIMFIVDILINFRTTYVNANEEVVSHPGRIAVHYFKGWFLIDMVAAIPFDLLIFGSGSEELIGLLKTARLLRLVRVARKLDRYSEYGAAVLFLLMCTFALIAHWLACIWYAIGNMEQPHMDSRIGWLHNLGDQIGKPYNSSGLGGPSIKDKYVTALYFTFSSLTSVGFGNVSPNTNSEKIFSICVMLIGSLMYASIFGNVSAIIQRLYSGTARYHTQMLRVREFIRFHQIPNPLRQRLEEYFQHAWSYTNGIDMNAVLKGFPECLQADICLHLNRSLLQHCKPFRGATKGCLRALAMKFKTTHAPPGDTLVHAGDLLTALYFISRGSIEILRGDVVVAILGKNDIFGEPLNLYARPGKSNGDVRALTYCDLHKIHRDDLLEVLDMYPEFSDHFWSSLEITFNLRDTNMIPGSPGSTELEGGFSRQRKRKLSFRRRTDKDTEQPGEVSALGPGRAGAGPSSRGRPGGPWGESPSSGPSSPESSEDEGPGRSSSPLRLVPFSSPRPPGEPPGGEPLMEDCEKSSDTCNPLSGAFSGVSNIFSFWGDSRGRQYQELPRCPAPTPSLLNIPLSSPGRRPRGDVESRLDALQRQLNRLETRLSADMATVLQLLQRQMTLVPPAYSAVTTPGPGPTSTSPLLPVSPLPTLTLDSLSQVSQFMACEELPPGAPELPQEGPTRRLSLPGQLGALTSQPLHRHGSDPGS", "assay": "primary screen, population patch clamp on CHO cells stably expressing hERG", "units": {"hERG current change (%, negative = inhibition) at 1uM": "%"}}
{"compound": "COc1ccc2c(c1)cc1c(=O)n(CC(=O)NC(C)CCc3ccccc3)nc(C)n12", "note": "(stereo not drawn)", "hERG current change (%, negative = inhibition) at 1uM": 16.2}
{"compound": "CC1CN(c2nc3c(c(=O)n(C)c(=O)n3C)n2Cc2c(Cl)cccc2Cl)CC(C)O1", "note": "(stereo not drawn)", "hERG current change (%, negative = inhibition) at 1uM": -1.22}
{"compound": "CCOCc1nnc(NC(=O)CCC2CCCCC2)s1", "hERG current change (%, negative = inhibition) at 1uM": 12.8}
{"compound": "Cn1cnnc1SCC(=O)OCN1C(=O)c2ccccc2C1=O", "hERG current change (%, negative = inhibition) at 1uM": 7.64}
{"compound": "Cc1nc(C2CCC3C4CCC5=CC(=O)CC[C@]5(C)C4CC[C@]23C)cs1", "note": "(stereo partly drawn)", "hERG current change (%, negative = inhibition) at 1uM": 16.6}
{"compound": "CC1=C/C(=N\\OC(=O)/C=C/c2ccccc2)C(C)=CC1=O", "hERG current change (%, negative = inhibition) at 1uM": 6.8}
{"compound": "COc1ccc(C2c3ccc4ccccc4c3Oc3ncn(CCCO)c(=N)c32)cc1OC", "note": "(stereo not drawn)", "hERG current change (%, negative = inhibition) at 1uM": -5}
{"compound": "COc1ccc(OC)c(C2Nc3nc4ccccc4n3C(C)=C2C(=O)Nc2ccc(C)cc2C)c1", "note": "(stereo not drawn)", "hERG current change (%, negative = inhibition) at 1uM": -5.3}
{"compound": "CNC(=O)c1c(NC(=O)CCS(=O)(=O)c2ccc(Cl)cc2)sc2c1CCN(C(=O)OC)C2", "hERG current change (%, negative = inhibition) at 1uM": -5.93}
{"compound": "O=C(Nc1ccc(SC(F)F)cc1)C1CC(=O)N(Cc2ccccc2)C1", "note": "(stereo not drawn)", "hERG current change (%, negative = inhibition) at 1uM": -18.9}
{"compound": "CCOc1ccccc1NC(=S)NCc1ccco1", "hERG current change (%, negative = inhibition) at 1uM": 14.2}
{"compound": "CCc1ccc(-c2cc3c(=O)n(CC(=O)N4CCCCCC4)nc(C)n3n2)cc1", "hERG current change (%, negative = inhibition) at 1uM": 10.9}
{"compound": "C=CCc1cccc(CNc2ccc(Br)cc2)c1O", "hERG current change (%, negative = inhibition) at 1uM": 8.86}
{"compound": "COc1ccc(NC(=O)CN2CCN(C(=O)N3CCOCC3)CC2)cc1", "hERG current change (%, negative = inhibition) at 1uM": 8.73}
{"compound": "COc1ccc(C(C2C(=O)CC(C)(C)CC2=O)C2C(=O)CC(C)(C)CC2=O)cc1COCC(F)(F)F", "hERG current change (%, negative = inhibition) at 1uM": -3.01}
{"compound": "CC(C)N(Cc1ccccc1)C(=O)c1ccc2c(c1)OCO2", "hERG current change (%, negative = inhibition) at 1uM": 4.76}
{"compound": "CC(CCn1cccn1)NC(=O)c1cc(COc2ccc(F)cc2Cl)on1", "note": "(stereo not drawn)", "hERG current change (%, negative = inhibition) at 1uM": 2.2}
{"compound": "CN1C(=O)/C(=C/c2ccc(OCc3cccc(F)c3)cc2)NC1=S", "hERG current change (%, negative = inhibition) at 1uM": 15.5}
{"compound": "COCCCn1c(C23CC4CC(CC(C4)C2)C3)n[nH]c1=S", "hERG current change (%, negative = inhibition) at 1uM": 12.8}
{"compound": "C=CCc1cc(C=O)cc(OCC)c1OCc1ccc(Cl)cc1", "hERG current change (%, negative = inhibition) at 1uM": 18.5}
{"compound": "CCN(CC1CCCN(CCc2cccc(OC)c2)C1)C(=O)c1ccoc1", "note": "(stereo not drawn)", "hERG current change (%, negative = inhibition) at 1uM": -14.5}
{"compound": "COC(=O)NNC1=CC(=O)CC(C)(C)C1", "hERG current change (%, negative = inhibition) at 1uM": 15.1}
{"compound": "O=[N+]([O-])c1ccccc1S(=O)(=O)Nc1nc2ccccc2s1", "hERG current change (%, negative = inhibition) at 1uM": -9.12}
{"compound": "CC(C)Oc1ccc(S(=O)(=O)N2CCOCC2)cc1NC(=O)CC1CCCC1", "hERG current change (%, negative = inhibition) at 1uM": 1.28}
